Test results published in patent US20190194291A1 (Hoffmann-La Roche, published 2019).

Columns and labels:
human FAP on cells [1] = molecular target: T1, human FAP on cells (human, UniProt Q12884 1-760); assay: cell-based or functional assay
[2] = molecular target: T2, human 4-1BB (CD137) on cells (human, UniProt Q07011 24-255); assay: cell-based or functional assay
[3] = molecular target: T2, human 4-1BB (CD137) on cells; assay: flow cytometry on activated human PBMCs (anti-CD3/anti-CD28), gated on CD4+ T cells, PE anti-human IgG detection
[4] = molecular target: T2, human 4-1BB (CD137) on cells; assay: flow cytometry on activated human PBMCs (anti-CD3/anti-CD28), gated on gamma-delta T cells, PE anti-human IgG detection
human FAP on cells [5] = molecular target: T1, human FAP on cells; assay: flow cytometry on FAP-expressing WM-266-4 cells, PE anti-human IgG detection (FIGS. 9C and D)
human FAP on cells [6] = molecular target: T1, human FAP on cells; assay: flow cytometry on FAP-expressing MV-3 cells, PE anti-human IgG detection (FIGS. 9C and D)
[7] = molecular target: T2, human 4-1BB (CD137) on cells; assay: flow cytometry on activated human PBMCs (anti-CD3/anti-CD28), gated on CD8+ T cells, PE anti-human IgG detection
human FAP on cells [8] = molecular target: T1, human FAP on cells; assay: flow cytometry on FAP-expressing WM-266-4 cells, PE anti-human IgG detection (FIGS. 9A and B)
human FAP on cells [9] = molecular target: T1, human FAP on cells; assay: flow cytometry on FAP-expressing MV-3 cells, PE anti-human IgG detection (FIGS. 9A and B)
[10] = molecular target: T2, human 4-1BB (CD137) on cells; assay: flow cytometry on activated human PBMCs (anti-CD3/anti-CD28), gated on CD8+ T cells, PE anti-human IgG detection; remark: listed apart in the source
[11] = molecular target: T2, human 4-1BB (CD137) on cells; assay: flow cytometry on activated human PBMCs (anti-CD3/anti-CD28), gated on CD4+ T cells, PE anti-human IgG detection; remark: listed apart in the source
[12] = molecular target: T2, human 4-1BB (CD137) on cells; assay: flow cytometry on activated human PBMCs (anti-CD3/anti-CD28), gated on gamma-delta T cells, PE anti-human IgG detection; remark: listed apart in the source

B1: monovalent FAP-targeted 4-1BB ligand (71-248) trimer-containing Fc (kih) fusion antigen binding molecule (Construct 2.4) (Fc fusion)
chain 1: REGPELSPDDPAGLLDLRQGMFAQLVAQNVLLIDGPLSWYSDPGLAGVSLTGGLSYKEDTKELVVAKAGVYYVFFQLELRRVVAGEGSGSVSLALHLQPLRSAAGAAALALTVDLPPASSEARNSAFGFQGRLLHLSAGQRLGVHLHTEARARHAWQLTQGATVLGLFRVTPEIPAGLGGGGSGGGGSREGPELSPDDPAGLLDLRQGMFAQLVAQNVLLIDGPLSWYSDPGLAGVSLTGGLSYKEDTKELVVAKAGVYYVFFQLELRRVVAGEGSGSVSLALHLQPLRSAAGAAALALTVDLPPASSEARNSAFGFQGRLLHLSAGQRLGVHLHTEARARHAWQLTQGATVLGLFRVTPEIPAGLGGGGSGGGGSRTVAAPSVFIFPPSDRKLKSGTASVVCLLNNFYPREAKVQWKVDNALQSGNSQESVTEQDSKDSTYSLSSTLTLSKADYEKHKVYACEVTHQGLSSPVTKSFNRGE[human IgG1 Fc with changes omitted here]
chain 2: REGPELSPDDPAGLLDLRQGMFAQLVAQNVLLIDGPLSWYSDPGLAGVSLTGGLSYKEDTKELVVAKAGVYYVFFQLELRRVVAGEGSGSVSLALHLQPLRSAAGAAALALTVDLPPASSEARNSAFGFQGRLLHLSAGQRLGVHLHTEARARHAWQLTQGATVLGLFRVTPEIPAGLGGGGSGGGGSASTKGPSVFPLAPSSKSTSGGTAALGCLVEDYFPEPVTVSWNSGALTSGVHTFPAVLQSSGLYSLSSVVTVPSSSLGTQTYICNVNHKPSNTKVDEKVEPKSC
heavy: EVQLLESGGGLVQPGGSLRLSCAASGFTFSSYAMSWVRQAPGKGLEWVSAIIGSGASTYYADSVKGRFTISRDNSKNTLYLQMNSLRAEDTAVYYCAKGWFGGFNYWGQGTLVTVSSASTKGPSVFPLAPSSKSTSGGTAALGCLVKDYFPEPVTVSWNSGALTSGVHTFPAVLQSSGLYSLSSVVTVPSSSLGTQTYICNVNHKPSNTKVDKKVEPKSCDKTHTCPPCPAPEAAGGPSVFLFPPKPKDTLMISRTPEVTCVVVDVSHEDPEVKFNWYVDGVEVHNAKTKPREEQYNSTYRVVSVLTVLHQDWLNGKEYKCKVSNKALGAPIEKTISKAKGQPREPQVCTLPPSRDELTKNQVSLSCAVKGFYPSDIAVEWESNGQPENNYKTTPPVLDSDGSFFLVSKLTVDKSRWQQGNVFSCSVMHEALHNHYTQKSLSLSPGK
light: EIVLTQSPGTLSLSPGERATLSCRASQSVTSSYLAWYQQKPGQAPRLLINVGSRRATGIPDRFSGSGSGTDFTLTISRLEPEDFAVYYCQQGIMLPPTFGQGTKVEIKRTVAAPSVFIFPPSDEQLKSGTASVVCLLNNFYPREAKVQWKVDNALQSGNSQESVTEQDSKDSTYSLSSTLTLSKADYEKHKVYACEVTHQGLSSPVTKSFNRGEC
notes: FAP-targeted variant of Control D; 4-1BBL moieties fused N-terminally to crossed CL/CH1 with charged residues; also called positive control construct 2.4
Human FAP on cells [1]
  EC50 [nM] of CD25-upregulation on CD8+ T cells: 0.03 nM
  EC50 [nM] of CD137 (4-1BB)-upregulating on CD8+ T cells: 0.08 nM
[2]
  EC50 [nM] of NFkB-activation-induced Luciferase activity-curves, on 3T3-huFAP: 0.06 nM
  EC50 [nM] of NFkB-activation-induced Luciferase activity-curves, on MV-3: 0.15 nM
[3]
  EC50: 100 pM
[4]
  EC50: 110 pM
Human FAP on cells [5]
  EC50: 1180 pM
Human FAP on cells [6]
  EC50: 2210 pM
[7]
  EC50: 1130 pM
Human FAP on cells [8]
  EC50: 3430 pM
Human FAP on cells [9]
  EC50: 2160 pM
[10]
  EC50: 230 pM
[11]
  EC50: 410 pM
[12]
  EC50: 640 pM
